Results taken from PubChem BioAssay AID493208 (National Center for Advancing Translational Sciences (NCATS), 2011).
Hit rate of the full screen: of about 44,000 compounds, about 340 (0.77%) were called active. Inconclusive results (about 5%) are left out. The call rests on the fitted dose curve; in most records, active means well fitted inhibition curve with a large enough effect; inconclusive means small, poorly fitted or top-dose-only effect; inactive means flat fitted curve, though single readings scatter. The list shows a part of the results.

Assay: Acumen qHTS Assay for Inhibitors of the mTORC1 Signaling Pathway in MEF (Tsc2-/-, p53-/-) Cells: Sytravon;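 further: plate controls were DMSO for no effect and rapamycin for full effect; nearly all actives have a fitted effect of over 50% in size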
Settings: phospho-rpS6 immunofluorescence/PI, 24 h; series mostly up to 38.3 µM; activity change, negative = inhibition: at the top concentration
Method in brief: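 Plate MEFs (Tsc2-/-, p53-/-, empty vector) in DMEM/10% FBS; after 24 h add compound, incubate 24 h at 37 degree Celsius; fix in PFA/TX-100, block, stain phospho-rpS6 and 10 uM PI; scan at 488 nm; report % positive cells.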

Activity change, negative = inhibition, inactive:
CCc1ccc2nc(N(Cc3cccnc3)C(=O)c3cccs3)sc2c1 -19.9%
CC(=O)c1cccc(NC(=O)c2noc3c2CC(C)CC3)c1 (stereo unspecified) 0.176%
CCOC(=O)CSC1=Nc2ccccc2C2=NC(CCC(=O)NCc3ccccc3)C(=O)N12 (stereo unspecified) 0.449%
COc1ccc(NC(=O)CN(c2cccc(C)c2C)S(=O)(=O)c2ccccc2)cc1OC 3.88%
Cc1cc2c(cc1C)C(c1cccc(OC(C)C)c1)CC(=O)N2 (stereo unspecified) -12.5%
CCCCN(C)CCCNC(=O)Cn1nc(CC)n2c(cc3sc(C)cc32)c1=O -0.64%
COc1cc2c(=O)c(S(=O)(=O)c3ccc(C)cc3)cn(Cc3cccc(C)c3)c2cc1OC -0.754%
CC1CN(C(=O)N2CCC(C(=O)NCCC3=CCCCC3)CC2)c2ccccc2O1 (stereo unspecified) -15.5%
CCCCNC(=O)C1CCCN(c2nnc(C)c3c(C)n(-c4ccc(Cl)cc4)nc23)C1 (stereo unspecified) -10.7%
O=C(CSc1nnc(-c2cccs2)o1)Oc1ccc(Cl)cc1 1.27%
CC(C)c1ccc(S(=O)(=O)Nc2ccc(O)c(Sc3nc4ccccc4s3)c2)cc1 -10.7%
CC(=O)c1ccc(NC(=O)CSc2nccn2Cc2ccco2)cc1 -0.667%
CSc1cccc(NC(=O)C2CCN(S(=O)(=O)c3ccc4[nH]c(=O)ccc4c3)CC2)c1 -8.32%
CCN(CC)CCN(C(=O)c1ccc(C(=O)OC)cc1)c1nc2ccc(Cl)cc2s1 -7.24%
CCOC(=O)C1(C)C=C(Nc2ccc(C)cc2)C(=O)N1c1ccccc1 (stereo unspecified) 1.43%
COc1cccc(C(=O)N2CCC(c3nc4ccccc4s3)CC2)c1 -10.6%
COCCNc1cc(N2CCN(C3CCCCC3)CC2)c2noc3c2c1C(=O)c1ccccc1-3 2.01%
O=C(C1COc2ccccc2O1)N(Cc1cccnc1)c1nc2c(F)cc(F)cc2s1 (stereo unspecified) 1.08%
Cc1ccc(C(=O)Nc2nnc(SCc3cc(=O)c4c(C)ccc(C)c4[nH]3)s2)cc1 0%
O=C(Nc1ccc2nn(-c3ccc(F)cc3)nc2c1)c1cccc2c(Cl)cccc12 8.09%
COc1cccc(C(=O)N2CCC(N3CCN(Cc4ccc(F)cc4)C(=O)C3=O)CC2)c1 -7.46%
Cc1ccc(Cl)cc1N1CCN(C(=O)c2c(C)oc3ncnc(N4CCOCC4)c23)CC1 -3.59%
COC(=O)c1cccc(Nc2c(-c3cc(Br)ccc3O)nc3nc[nH]n23)c1 2.89%
CCOc1ccccc1NC(=O)c1c(NCc2ccc(OC)c(OC)c2OC)sc2c1CCC(C)C2 (stereo unspecified) 0.1%
CCc1nnc(SCc2nc(-c3ccccc3F)oc2C)c2cc3sccc3n12 3.91%
Cc1cccc(-c2noc(-c3ccc(NC4CCCC4)c([N+](=O)[O-])c3)n2)c1 4.71%
Cc1ccc(OCC(=O)Nc2cccc(C(=O)OCc3cc(=O)n4cc(C)sc4n3)c2)cc1 0%
O=C(CC1N=C2c3ccccc3N=C(SCc3cccc(Cl)c3)N2C1=O)NC1CCCCC1 (stereo unspecified) 4.73%
COc1ccc(NC(=O)CSc2nnc(-c3nnn(-c4ccc(F)cc4)c3C)o2)cc1 -4.11%
COc1cc(OC)c(NC(=O)c2nc(-c3ccncc3)no2)cc1Cl 0%
CCCCCNC(=O)C1CCC(Cn2c(=O)c3sccc3n(CC(=O)N3CCCC3)c2=O)CC1 (stereo unspecified) 9.48%
CCOCN(C(=O)Cn1c(C)nc2ccccc21)c1c(C)cccc1CC -12.3%
Cn1c(=NC(=O)c2ccc(F)cc2)sc2cc(Br)ccc21 0.695%
Cc1ccc(Cl)cc1-n1c(=O)cc(N2CCN(c3ccccc3)CC2)[nH]c1=O 0.472%
Cc1cc2n(n1)CCCN2C(=O)Nc1ccccc1F 3.69%
CCc1ccccc1NC(=O)CC(C)n1nc(C)cc1C (stereo unspecified) -1.9%
Cc1ccc(N2C(=O)c3n[nH]c(C)c3C2c2ccc(C(C)C)cc2)cc1 (stereo unspecified) 0.335%
CCOC(=O)c1c(S(=O)(=O)N2CCN(c3ccccc3OC)CC2)c(C)n(C)c1C -5.79%
COc1cc(OC)c(NC(=O)NCc2ccc3c(c2)CCN3C(C)=O)cc1Cl -10.8%
CC(=O)c1cccc(NC(=O)c2sc3nc4c(cc3c2N)CCCC4)c1 -9.35%
O=c1c2cc3c(cc2n(Cc2cccc(F)c2)c(=O)n1Cc1nc(-c2ccccc2)no1)OCO3 1.33%
Cc1ccc(Cl)cc1NC(=O)c1cccc(NC(=O)N2CCSc3ncccc32)c1 -5.16%
CCOc1ccc(NC(=O)C2CCCN(c3nnc(-n4c(C)ccc4C)s3)C2)cc1 (stereo unspecified) -0.622%
CCc1ccc(NCc2cc3ccc(OC)cc3n(CC(=O)Nc3cccc(Cl)c3C)c2=O)cc1 -6.12%
COCCN1C(=O)c2[nH]nc(-c3c(C)cc(C)cc3O)c2C1c1cccc(O)c1 (stereo unspecified) -4.15%
COc1ccc(S(=O)(=O)N(CCc2ccccc2)CC(=O)NCc2ccccc2)cc1OC 13.4%
Cc1cccn2c(=O)c(C(=O)NCCc3ccc(Cl)cc3)cnc12 -0.51%
CC(=O)c1ccc(NC(=O)C2CCC(CNS(=O)(=O)c3cccc4nsnc34)CC2)cc1 (stereo unspecified) -3.71%
CC(C)(C)OC(=O)N1CCC(c2c(C(=O)N3CCN(C(=O)c4ccco4)CC3)cnn2-c2ccc(Cl)cc2)CC1 -9.91%
CCc1ccccc1N1C(=O)N(Cc2cccc(Cl)c2)c2ccccc2S1(=O)=O -5.32%
Cc1ccc(C(=O)NCc2nnnn2-c2ccc(C)c(C)c2)cc1 -22.1%
Cc1ccc(-c2nnc(Nc3ccc(Br)cc3)c3ccccc23)cc1S(=O)(=O)NCc1nc2ccccc2[nH]1 -3.83%
CCCN(CCC)C(=O)C1CCCN(c2ncnc3c2nc2n3CCCCC2)C1 (stereo unspecified) -5.53%
Cc1ccccc1CNC(=O)c1ccc(CN2CC(=O)N3CCCCC3C2=O)cc1 (stereo unspecified) -9.91%
CCc1nnc2c3ccccc3nc(N3CCN(c4cc(C)ccc4C)CC3)n12 3.75%
COc1ccc(CNC(=O)C(=O)Nc2cc(Cl)ccc2OC)cc1 0.623%
Cc1ccccc1CN1C(=O)c2ccccc2S(=O)c2ccc(C(=O)NCc3ccc4c(c3)OCO4)cc21 (stereo unspecified) 0.385%
COc1cccc(CNC(=O)CCC(=O)N2CC(C)Sc3ccccc32)c1 (stereo unspecified) 3.61%
CC(=O)Nc1cc(C(=O)Nc2ccc3c(c2)N(C)C(=O)c2ccccc2S3)ccc1C -17.7%
COc1ccc(N2CCN(S(=O)(=O)CCNC(=O)c3c(F)cccc3Cl)CC2)cc1 0.535%
Cc1ccc(S(=O)(=O)c2nnn3c2nc(N2CCC(C(N)=O)CC2)c2cc(Cl)ccc23)cc1C 0.795%
